The results in this text go back to PMC10439943, “SCF^RMF mediates degradation of the meiosis-specific recombinase DMC1” (Nature Communications, 2023).

Protein sequences, listed by entry. Tags and fused reporters are not part of them.
UniProt Q39255: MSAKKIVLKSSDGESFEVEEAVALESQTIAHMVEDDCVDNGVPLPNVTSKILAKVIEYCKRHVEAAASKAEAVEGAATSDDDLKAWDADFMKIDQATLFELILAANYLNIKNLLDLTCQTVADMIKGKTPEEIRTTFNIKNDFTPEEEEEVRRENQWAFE

Positions count from the first letter of the chain named. These are yes or no findings as the source states them, for the method shown. For some of these results: In cells and extracts the contact can be indirect. Some binding calls cover weakened binding; strength is not graded here. Tags and fused reporters may be left off the sequences shown.

The target in test [1] is T1, RMF1-FLAG (Arabidopsis thaliana) (UniProt Q9M365).
T1 sequence: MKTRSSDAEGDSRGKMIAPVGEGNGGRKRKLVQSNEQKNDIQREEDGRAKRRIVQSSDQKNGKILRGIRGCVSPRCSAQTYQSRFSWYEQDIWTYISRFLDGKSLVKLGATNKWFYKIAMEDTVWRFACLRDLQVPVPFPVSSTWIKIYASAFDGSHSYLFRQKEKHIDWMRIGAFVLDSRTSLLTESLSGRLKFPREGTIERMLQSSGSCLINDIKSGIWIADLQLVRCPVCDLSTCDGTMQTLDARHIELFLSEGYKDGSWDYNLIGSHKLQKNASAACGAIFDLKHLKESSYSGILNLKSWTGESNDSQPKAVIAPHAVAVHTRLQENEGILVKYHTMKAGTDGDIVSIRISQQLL
Nature of the test: co-IP; tobacco leaves co-infiltrated with the two tagged proteins; lysis in 50 mM Tris-HCl pH 8.0, 100 mM NaCl, 10% glycerol, 0.5% NP-40; anti-FLAG (RMF1/2-FLAG) or anti-GFP (RMF1/2-GFP) magnetic beads, 4 °C overnight; western blot. (In general: A western blot detects proteins with antibodies after separation by electrophoresis.)

Test [2] concerns the target T2, RMF2-FLAG (Arabidopsis thaliana) (UniProt Q9FGB8).
T2 sequence: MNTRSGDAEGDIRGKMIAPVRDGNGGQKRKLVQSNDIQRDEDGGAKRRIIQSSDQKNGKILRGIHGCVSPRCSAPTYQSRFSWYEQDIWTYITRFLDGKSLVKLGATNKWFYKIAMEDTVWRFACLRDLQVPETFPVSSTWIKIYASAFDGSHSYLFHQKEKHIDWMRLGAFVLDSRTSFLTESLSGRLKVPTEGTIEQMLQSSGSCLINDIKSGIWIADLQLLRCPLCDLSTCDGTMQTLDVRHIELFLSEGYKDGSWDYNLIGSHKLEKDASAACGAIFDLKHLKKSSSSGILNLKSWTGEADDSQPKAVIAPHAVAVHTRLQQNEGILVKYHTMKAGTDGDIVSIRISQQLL
The description is as above.

Test [3] addresses T3, cLUC-RMF1 (Arabidopsis thaliana) (UniProt Q9M365).
T3 sequence: T1 sequence
The test is described as follows: split reporter; split luciferase complementation (SLC) imaging in agro-infiltrated tobacco (N. benthamiana) leaves; nLUC and cLUC fusions; luciferin sprayed after 36-48 h.

The target in test [4] is T4, cLUC-RMF2 (Arabidopsis thaliana) (UniProt Q9FGB8).
T4 sequence: T2 sequence
The test is described as above.

Test [5] has as its target T5, RMF2 BiFC fusion used with ASK1 (Arabidopsis thaliana) (UniProt Q9FGB8).
T5 sequence: T2 sequence
Nature of the test: split reporter; BiFC with nYFP and cYFP fusions in agro-infiltrated tobacco leaves, confocal microscopy after 36-48 h.

The target of test [6] is T6, RMF1 BiFC fusion used with ASK1 (Arabidopsis thaliana) (UniProt Q9M365).
T6 sequence: T1 sequence
Described as above.

Test [7] concerns the target T7, F-box domain of RMF1 (yeast two-hybrid fusion) (Arabidopsis thaliana) (UniProt Q9M365).
T7 sequence: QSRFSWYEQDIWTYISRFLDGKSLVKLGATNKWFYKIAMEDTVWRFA
The test is described as follows: two-hybrid; yeast two-hybrid, AD fusions in pGADT7 and BD fusions in pGBKT7, mated strains, selection on SD/-His-Ade-Trp-Leu with X-alpha-Gal.

Test [8] has as its target T8, F-box domain of RMF2 (yeast two-hybrid fusion) (Arabidopsis thaliana) (UniProt Q9FGB8).
T8 sequence: T7 sequence with S16T
The description is as above.

The target of test [9] is T9, DMC1-cYFP (Arabidopsis thaliana) (UniProt Q39009).
T9 sequence: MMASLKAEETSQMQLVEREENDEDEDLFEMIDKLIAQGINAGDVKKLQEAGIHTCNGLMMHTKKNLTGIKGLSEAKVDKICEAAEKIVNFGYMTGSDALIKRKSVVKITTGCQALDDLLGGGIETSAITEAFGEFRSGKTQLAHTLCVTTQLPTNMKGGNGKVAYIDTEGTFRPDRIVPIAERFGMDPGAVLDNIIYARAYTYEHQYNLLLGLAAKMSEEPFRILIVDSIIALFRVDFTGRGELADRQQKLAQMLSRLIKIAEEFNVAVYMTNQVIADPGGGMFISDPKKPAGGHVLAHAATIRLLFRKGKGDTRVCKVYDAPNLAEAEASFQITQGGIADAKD
The test is described as follows: split reporter; BiFC with nYFP and cYFP fusions in agro-infiltrated tobacco leaves, confocal microscopy after 36-48 h.

In test [10] the target is T10, nLUC-DMC1 (Arabidopsis thaliana) (UniProt Q39009).
T10 sequence: T9 sequence
The test is described as follows: split reporter; split luciferase complementation (SLC) imaging in agro-infiltrated tobacco (N. benthamiana) leaves; nLUC and cLUC fusions; luciferin sprayed after 36-48 h.

For test [11], the target named is T11, RAD51 fused to nLUC (Arabidopsis thaliana) (UniProt P94102).
T11 sequence: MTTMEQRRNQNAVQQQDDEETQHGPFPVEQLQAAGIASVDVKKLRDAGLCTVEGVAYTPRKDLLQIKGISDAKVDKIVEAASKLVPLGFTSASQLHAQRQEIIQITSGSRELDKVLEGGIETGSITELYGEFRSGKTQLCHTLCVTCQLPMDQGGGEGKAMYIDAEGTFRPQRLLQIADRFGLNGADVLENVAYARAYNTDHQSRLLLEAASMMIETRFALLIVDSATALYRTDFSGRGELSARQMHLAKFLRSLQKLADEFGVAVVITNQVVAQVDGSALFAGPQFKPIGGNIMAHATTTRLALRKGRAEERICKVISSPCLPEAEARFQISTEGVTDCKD
The test is described as above.

The target in test [12] is T12, RMF1-GFP (Arabidopsis thaliana) (UniProt Q9M365).
T12 sequence: T1 sequence
The test is described as follows: co-IP; tobacco leaves co-infiltrated with the two tagged proteins; lysis in 50 mM Tris-HCl pH 8.0, 100 mM NaCl, 10% glycerol, 0.5% NP-40; anti-FLAG (RMF1/2-FLAG) or anti-GFP (RMF1/2-GFP) magnetic beads, 4 °C overnight; western blot.

Test [13] concerns the target T13, RMF2-GFP (Arabidopsis thaliana) (UniProt Q9FGB8).
T13 sequence: T2 sequence
The description is as above.

As for ASK1-MYC (from UniProt Q39255 1-160), the binding entry in [1] and in test [2] was “binds” throughout.
Take “ASK1 fused to nLUC (from UniProt Q39255 1-160)”: the binding entry in test [3] and in [4] was “binds” throughout.
Consider “ASK1 BiFC fusion (from UniProt Q39255 1-160)”, for which the binding result in test [5] and in test [6] was “binds” each time.
Turning to “ASK1 (yeast two-hybrid fusion) (from UniProt Q39255 1-160)”, the binding result in test [7] and in test [8] was “binds” in each case.

B1: RMF2-nYFP (protein, UniProt Q9FGB8 1-355)
chain: T2 sequence
B1: in test [9], the binding result was “binds”.

B2: cLUC-RMF2 (protein, UniProt Q9FGB8 1-355)
chain: T2 sequence
As to B2, the binding result is on record as “binds” in test [10] and “no binding” in test [11].

B3: nYFP-RMF1 (protein, UniProt Q9M365 1-359)
chain: T1 sequence
For B3, in test [9], the binding entry is listed as “binds”.

B4: cLUC-RMF1 (protein, UniProt Q9M365 1-359)
chain: T1 sequence
Turning to B4, the values for the binding result in [10] and in test [11] were “binds” and “no binding”, respectively.

B5: SUMO-HIS-DMC1 (natural protein, Arabidopsis thaliana, UniProt Q39009 1-344, looked up)
chain: T9 sequence
notes: DMC1, meiosis-specific RecA-family recombinase, Arabidopsis thaliana, AGI At3G22880; CDS cloned into pSUMO (on pET28a); also called At3G22880; not shown: SUMO, N-terminal, kept; HIS, N-terminal, kept
Consider B5, for which the binding entry in test [12] and in [13] was “binds” each time.
